Results published in ChEMBL document CHEMBL4888484, “Replenishing the malaria drug discovery pipeline: Screening and hit evaluation of the MMV Hit Generation Library 1 (HGL1) against asexual blood stage Plasmodium falciparum ,using a nano luciferase reporter read-out” (2022).
The campaign covered roughly 150,000 compounds. About 540 (0.36%) showed an effect of 50% or more. The list shows a part of the results.

Test system: Plasmodium falciparum
Test: Primary screen in NF54 nanoGlo assay, in single point, at 2uM, 72h; a lower Z score goes with more inhibition
Format: functional, Erythrocyte
Conditions: timepoint 72 hour

Row | SMILES | % Inhibition | Z score
1 | Cn1cccc1C(=O)CN1CCN(S(C)(=O)=O)c2ccccc2C1 | -4% | 0.56
2 | CC(C)C(=O)N(Cc1ccccc1OS(=O)(=O)c1ccc(F)cc1)C[C@H]1CCCO1 | -4% | 0.43
3 | COc1ccsc1S(=O)(=O)N(C)Cc1cn(C)nc1C(F)(F)F | -2% | 0.31
4 | c1ccc2c(c1)c1c(n2Cc2ccncc2)CCCNC1 | -4% | 0.59
5 | CN(C(=O)c1ccco1)[C@@H](Cc1ccc(F)cc1F)C1CCN(Cc2ccc3c(c2)CCO3)CC1 | -13% | 1.81
6 | COc1ccc(CN(CC(C)C)C(=O)NC(C)C)cc1OS(=O)(=O)C(C)C | -21% | 2.02
7 | Cc1cc(CN(C)c2ncc(F)cn2)no1 | -2% | 0.18
8 | Cc1nc(N)sc1-c1ccn(Cc2ccncc2)n1 | -18% | 2.26
9 | CN(Cc1nccn1C)C(=O)c1cnnn1-c1ccccc1 | 12% | -1.64
10 | Nc1ccc2nc(CCc3nc4ccc(N)cc4s3)sc2c1 | -10% | 1.37
11 | CO[C@H]1C[C@H]2CN(C(=O)c3n[nH]c4ccccc34)CC(=O)N2C1 | -1% | 0.11
12 | O=C(O)c1cccc(Cn2cnc3c2CCCC3)c1 | -8% | 0.76
13 | CCCC1(CCC)NC(=O)N(CC(=O)Nc2nc(-c3cccc4ccccc34)cs2)C1=O | -7% | 0.94
14 | O=C1CC[C@]2(CCCN(c3ccncc3F)C2)CN1C1CCCC1 | 0% | 0.02
15 | COc1ccc(-n2ncc3c2CC(C)(C)C[C@@H]3NC(=O)C2CCN(C(C)=O)CC2)cc1 | -18% | 1.56
16 | COc1ccc(-c2noc(CCN(C(=O)C3CCC3)[C@@H](C)c3ccccc3)n2)cc1OC | -11% | 1.49
17 | Cc1nn(-c2cc(N(S(C)(=O)=O)S(C)(=O)=O)c(Cl)cc2Cl)c(=O)n1C | -3% | 0.4
18 | CC(C)C(=O)N1CCN(C(=O)c2ccc3ccccc3c2)[C@H]2CS(=O)(=O)C[C@H]21 | -4% | 0.72
19 | O=C1C2CC=CCC2C(=O)N1CC1CCCO1 (stereo not drawn) | -16% | 2.08
20 | Cc1c(-c2nnc(C(=O)N3CCCCCC3)o2)oc2c(C)cccc12 | 17% | -2
21 | c1nc(NCC(C2CCOC2)N2CCCC2)c2ccsc2n1 (stereo not drawn) | -1% | 0.1
22 | CCc1cccc(NC(=O)CN2CC[C@H](n3cc(C)cn3)C2)c1 | 5% | -0.59
23 | Cn1cc(CN2C[C@@H]3C[C@H](C2)c2ccc(NC(=O)c4ccc(C#N)cc4)c(=O)n2C3)c2ccccc21 | 13% | -1.56
24 | O=C(c1ccc2c(n1)CCCC2)N(Cc1ccco1)C[C@H]1CCCO1 | -1% | 0.2
25 | CC(C)(C)c1ncc(C=Cc2cnc(C(=O)O)cn2)s1 | -1% | 0.09
26 | O=C(Oc1ccc(Cl)cc1)c1cnsn1 | -2% | 0.27
27 | CC1CCCC(C)C1NC(=O)Nc1nncc(-c2ccccc2)n1 (stereo not drawn) | 4% | -0.65

Row | SMILES | % Inhibition | Z score
28 | Cc1cc(N2CCCC2)ccc1-c1nc2cnccn2c1NCc1ccco1 | -7% | 1.32
29 | Cc1cccc2nc(CN3C[C@H](F)C[C@H]3C(N)=O)cn12 | -13% | 1.82
30 | C[C@H](NC(=O)c1ccc2c(c1)OCCO2)c1nnc(N)s1 | 9% | -0.96
31 | COC(=O)C1(CNCc2cscn2)CCCCC1 | -15% | 1.71
32 | Cc1ccc(CC(=O)N2CC(O)(c3ccc(F)cc3)C2)cn1 | -10% | 1.15
33 | Cc1nc(N2CCC3(CC2)COC(=O)O3)c2ccsc2n1 | -7% | 1.39
34 | CC(C)Oc1cc(-c2ccnn2C(C)C)nc(N)n1 | -5% | 0.61
35 | CCCc1cc(N2CCN(C(=O)c3ccc4cc[nH]c4c3)CC2)nc2nnc(CC)n12 | -1% | 0.09
36 | CC1(C)C[C@H](c2ccccc2)CN1C(=O)c1coc(CO)c1 | 7% | -0.85
37 | N#Cc1cnc(-c2ccc3c(c2)OCO3)nc1N | 5% | -0.88
38 | Cc1nc2ncccc2cc1C(=O)N1CCC2(CCNC(=O)CC2)CC1 | -8% | 1.09
39 | CCc1nccc(-c2nccn2CCOc2ccccc2F)n1 | -5% | 0.87
40 | O=C(Cc1c(F)cccc1Cl)Nc1nc(-c2ccccc2)cs1 | -3% | 0.48
41 | CC[C@H](NS(=O)(=O)N1CCCC1)c1cc(C)ccn1 | -2% | 0.35
42 | Cc1noc(-c2nn(C)c3c2CN(C(=O)Nc2ccccc2C(F)(F)F)CC3)n1 | 4% | -0.6
43 | Cc1ccc(-c2ccc(C(=O)NCCN3CCC[C@H](C(N)=O)C3)cc2)cc1F | 1% | -0.21
44 | CCN(Cc1nccn1Cc1cccc(OC)c1)S(=O)(=O)c1ccc(OC)cc1 | -4% | 0.84
45 | O=C(NC[C@H]1Cc2ccccc2O1)c1ccc(-c2ccco2)[nH]c1=O | -8% | 1.31
46 | Cc1nnc(CN2C[C@@H]3CCC[C@@]3(C(=O)OC(C)(C)C)C2)s1 | -10% | 1.44
47 | COc1ccccc1N(C)CCCN1C(=O)NC(C)(C)C1=O | -2% | 0.31
48 | O=C(NCC[C@@H]1C[C@@H]2C=C[C@H]1C2)c1cc2n(n1)CCNC2 | -7% | 1.03
49 | Cc1cc2c(NC(=O)CCc3cc4n(n3)CCNC4)cccc2nn1 | -2% | 0.29
50 | Clc1ccc(CN2CCc3nc(N4CCOCC4)ncc3C2)cc1 | -8% | 1.52
51 | Cn1ncc2c(N)nc(N3CCC(C)(C)C3)nc21 | -9% | 1.22
52 | Cc1nn(C)c(C)c1[C@H]1OCC[C@@H]1NC(=O)C1CC1c1cccc2ccccc12 (stereo partly drawn) | -12% | 1.43
53 | Cc1nnc(C(=O)N[C@H]2CCC(=O)NC2(C)C)s1 | -2% | 0.47
54 | Cc1nn(C)c(C)c1CNc1cnn(CC(F)(F)F)c1 | 0% | -0.03
